# From the supplement of paper PMC8728848
# Some of the results follow.
# B1: Clone730PsrP (Streptococcus pneumoniae) (protein)
# chain: MDHHHHHHHHHHASENLYFQGAMVVGSQTAAATEATAKKVEEDRKKPASDYVASVTNVNLQSYAKRRKRSVDSIEQLLASIKNAAVFSGNTIVNGAPAINASLNIAKSETKVYTGEGVDSVYRVPIYYKLKVTNDGSKLTFTYTVTYVNPKTNDLGNISSMRPGYSIYNSGTSTQTMLTLGSDLGKPSGVKNYITDKNGRQVLSYNTSTMTTQGSGYTWGNGAQMNGFFAKKGYGLTSSWTVPITGTDTSFTFTPYAARTDRIGINYFNGGGKVVESSTT
# Columns and labels:
# Assay in all cases: glycan array binding signal (z-score within array); higher = stronger binding
# Conditions in all cases: glycan notation: IUPAC condensed, linker removed
# [1] = target: GlcNAc(b1-3)Gal(b1-4)GlcNAc(b1-3)Gal(b1-4)GlcNAc(b1-2)Man(a1-3)[GlcNAc(b1-3)Gal(b1-4)GlcNAc(b1-3)Gal(b1-4)GlcNAc(b1-2)Man(a1-6)]Man(b1-4)GlcNAc(b1-4)[Fuc(a1-6)]GlcNAc
# Summary of the method: (§1)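 Negative Z-scores can be read as non-binding. The Z-score is calculated within each array and then averaged across arrays of one protein sequence at different concentrations or buffers and across linkers. Arrays, 3228 in all, were curated from the Consortium for Functional Glycomics database and kept only where the protein sequence was available.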
# [2] = target: GlcNAc(b1-3)Gal(b1-4)GlcNAc(b1-3)Gal(b1-4)GlcNAc(b1-2)[GlcNAc(b1-3)Gal(b1-4)GlcNAc(b1-3)Gal(b1-4)GlcNAc(b1-6)]Man(a1-6)[GlcNAc(b1-3)Gal(b1-4)GlcNAc(b1-3)Gal(b1-4)GlcNAc(b1-2)Man(a1-3)]Man(b1-4)GlcNAc(b1-4)[Fuc(a1-6)]GlcNAc
# Summary of the method: as §1
# [3] = target: GlcNAc(b1-3)Gal(b1-4)GlcNAc(b1-3)Gal(b1-4)GlcNAc(b1-3)Gal(b1-4)GlcNAc(b1-2)Man(a1-3)[GlcNAc(b1-3)Gal(b1-4)GlcNAc(b1-3)Gal(b1-4)GlcNAc(b1-3)Gal(b1-4)GlcNAc(b1-2)Man(a1-6)]Man(b1-4)GlcNAc(b1-4)GlcNAc
# Summary of the method: as §1
# [4] = target: GlcNAc(b1-3)Gal(b1-4)GlcNAc(b1-3)Gal(b1-4)GlcNAc(b1-3)Gal(b1-4)GlcNAc(b1-2)Man(a1-3)[GlcNAc(b1-3)Gal(b1-4)GlcNAc(b1-3)Gal(b1-4)GlcNAc(b1-3)Gal(b1-4)GlcNAc(b1-2)Man(a1-6)]Man(b1-4)GlcNAc(b1-4)[Fuc(a1-6)]GlcNAc
# Summary of the method: as §1
# [5] = target: GlcNAc(b1-3)Gal(b1-4)GlcNAc(b1-3)Gal(b1-4)GlcNAc(b1-3)Gal(b1-4)GlcNAc(b1-2)[GlcNAc(b1-3)Gal(b1-4)GlcNAc(b1-3)Gal(b1-4)GlcNAc(b1-3)Gal(b1-4)GlcNAc(b1-6)]Man(a1-6)[GlcNAc(b1-3)Gal(b1-4)GlcNAc(b1-3)Gal(b1-4)GlcNAc(b1-3)Gal(b1-4)GlcNAc(b1-2)Man(a1-3)]Man(b1-4)GlcNAc(b1-4)[Fuc(a1-6)]GlcNAc
# Summary of the method: as §1
# [6] = target: GlcNAc(b1-3)Gal(b1-4)GlcNAc(b1-3)Gal(b1-4)GlcNAc(b1-3)Gal(b1-4)GlcNAc(b1-3)Gal(b1-4)GlcNAc(b1-2)Man(a1-3)[GlcNAc(b1-3)Gal(b1-4)GlcNAc(b1-3)Gal(b1-4)GlcNAc(b1-3)Gal(b1-4)GlcNAc(b1-3)Gal(b1-4)GlcNAc(b1-2)Man(a1-6)]Man(b1-4)GlcNAc(b1-4)GlcNAc
# Summary of the method: as §1
# [7] = target: GlcNAc(b1-3)Gal(b1-4)GlcNAc(b1-3)Gal(b1-4)GlcNAc(b1-3)Gal(b1-4)GlcNAc(b1-3)Gal(b1-4)GlcNAc(b1-2)Man(a1-3)[GlcNAc(b1-3)Gal(b1-4)GlcNAc(b1-3)Gal(b1-4)GlcNAc(b1-3)Gal(b1-4)GlcNAc(b1-3)Gal(b1-4)GlcNAc(b1-2)Man(a1-6)]Man(b1-4)GlcNAc(b1-4)[Fuc(a1-6)]GlcNAc
# Summary of the method: as §1
# [8] = target: GlcNAc(b1-3)Gal(b1-4)GlcNAc(b1-3)Gal(b1-4)GlcNAc(b1-3)Gal(b1-4)GlcNAc(b1-3)Gal(b1-4)GlcNAc(b1-2)[GlcNAc(b1-3)Gal(b1-4)GlcNAc(b1-3)Gal(b1-4)GlcNAc(b1-3)Gal(b1-4)GlcNAc(b1-3)Gal(b1-4)GlcNAc(b1-6)]Man(a1-6)[GlcNAc(b1-3)Gal(b1-4)GlcNAc(b1-3)Gal(b1-4)GlcNAc(b1-3)Gal(b1-4)GlcNAc(b1-3)Gal(b1-4)GlcNAc(b1-2)Man(a1-3)]Man(b1-4)GlcNAc(b1-4)[Fuc(a1-6)]GlcNAc
# Summary of the method: as §1
# [9] = target: GlcNAc(b1-3)Gal(b1-4)GlcNAc(b1-3)Gal(b1-4)GlcNAc(b1-3)GalNAc
# Summary of the method: as §1
# [10] = target: GlcNAc(b1-3)Gal(b1-4)GlcNAc(b1-3)GalNAc
# Summary of the method: as §1
# [11] = target: GlcNAc(b1-3)Gal(b1-4)GlcNAc(b1-3)[GlcNAc(b1-3)Gal(b1-4)GlcNAc(b1-3)]GalNAc
# Summary of the method: as §1
# [12] = target: GlcNAc(b1-3)Gal(b1-4)GlcNAc(b1-6)[Gal(b1-3)]GalNAc
# Summary of the method: as §1
# [13] = target: GlcNAc(b1-3)Gal(b1-4)GlcNAc(b1-6)[GlcNAc(b1-3)Gal(b1-3)]GalNAc
# Summary of the method: as §1
# [14] = target: GlcNAc(b1-3)Gal(b1-4)GlcNAc(b1-6)[GlcNAc(b1-3)]Gal(b1-4)GlcNAc
# Summary of the method: as §1
# GlcNAc(b1-3)GalNAc = target: GlcNAc(b1-3)GalNAc
# Summary of the method: as §1
# GlcNAc(b1-3)Man = target: GlcNAc(b1-3)Man
# Summary of the method: as §1
# [15] = target: GlcNAc(b1-3)[GlcNAc(b1-4)][GlcNAc(b1-6)]GlcNAc
# Summary of the method: as §1
# [16] = target: GlcNAc(b1-3)[GlcNAc(b1-6)]Gal(b1-4)GlcNAc
# Summary of the method: as §1
# [17] = target: GlcNAc(b1-3)[GlcNAc(b1-6)]GalNAc
# Summary of the method: as §1
# [18] = target: GlcNAc(b1-4)Gal(b1-4)GlcNAc
# Summary of the method: as §1
# GlcNAc(b1-4)GlcNAc = target: GlcNAc(b1-4)GlcNAc
# Summary of the method: as §1
# [19] = target: GlcNAc(b1-4)GlcNAc(b1-4)GlcNAc
# Summary of the method: as §1
# [20] = target: GlcNAc(b1-4)GlcNAc(b1-4)GlcNAc(b1-4)GlcNAc(b1-4)GlcNAc
# Summary of the method: as §1
# [21] = target: GlcNAc(b1-4)GlcNAc(b1-4)GlcNAc(b1-4)GlcNAc(b1-4)GlcNAc(b1-4)GlcNAc
# Summary of the method: as §1
# [22] = target: GlcNAc(b1-4)[GlcNAc(b1-6)]GalNAc
# Summary of the method: as §1
# [23] = target: GlcNAc(b1-6)Gal(b1-4)GlcNAc
# Summary of the method: as §1
# GlcNAc(b1-6)GalNAc = target: GlcNAc(b1-6)GalNAc
# Summary of the method: as §1
# [24] = target: GlcNAc6S(b1-3)Gal(b1-4)GlcNAc
# Summary of the method: as §1
# Kdn(a2-3)Gal(b1-3)GalNAc = target: Kdn(a2-3)Gal(b1-3)GalNAc
# Summary of the method: as §1
# Kdn(a2-3)Gal(b1-3)GlcNAc = target: Kdn(a2-3)Gal(b1-3)GlcNAc
# Summary of the method: as §1
# Kdn(a2-3)Gal(b1-4)Glc = target: Kdn(a2-3)Gal(b1-4)Glc
# Summary of the method: as §1
# Kdn(a2-3)Gal(b1-4)GlcNAc = target: Kdn(a2-3)Gal(b1-4)GlcNAc
# Summary of the method: as §1
# [25] = target: Kdn(a2-3)Gal(b1-4)[Fuc(a1-3)]GlcNAc
# Summary of the method: as §1
# Kdn(a2-6)Gal(b1-4)GlcNAc = target: Kdn(a2-6)Gal(b1-4)GlcNAc
# Summary of the method: as §1
# [26] = target: Man(a1-2)Man(a1-2)Man(a1-3)Man
# Summary of the method: as §1
# [27] = target: Man(a1-2)Man(a1-2)Man(a1-6)[Man(a1-3)]Man
# Summary of the method: as §1
# Man(a1-2)Man(a1-3)Man = target: Man(a1-2)Man(a1-3)Man
# Summary of the method: as §1
# [28] = target: Man(a1-2)Man(a1-3)[Man(a1-2)Man(a1-6)]Man
# Summary of the method: as §1
binder,measurement,setting,value
B1,glycan array binding signal (z-score),[1],-0.187
same,glycan array binding signal (z-score),[2],-0.544
same,glycan array binding signal (z-score),[3],-0.481
same,glycan array binding signal (z-score),[4],-0.109
same,glycan array binding signal (z-score),[5],-0.446
same,glycan array binding signal (z-score),[6],0.123
same,glycan array binding signal (z-score),[7],-0.439
same,glycan array binding signal (z-score),[8],-0.445
same,glycan array binding signal (z-score),[9],-0.583
same,glycan array binding signal (z-score),[10],-0.186
same,glycan array binding signal (z-score),[11],0.149
same,glycan array binding signal (z-score),[12],-0.413
same,glycan array binding signal (z-score),[13],-0.367
same,glycan array binding signal (z-score),[14],-0.496
same,glycan array binding signal (z-score),GlcNAc(b1-3)GalNAc,-0.331
same,glycan array binding signal (z-score),GlcNAc(b1-3)Man,1.37
same,glycan array binding signal (z-score),[15],-0.013
same,glycan array binding signal (z-score),[16],-0.514
same,glycan array binding signal (z-score),[17],-0.052
same,glycan array binding signal (z-score),[18],0.625
same,glycan array binding signal (z-score),GlcNAc(b1-4)GlcNAc,0.226
same,glycan array binding signal (z-score),[19],0.159
same,glycan array binding signal (z-score),[20],0.515
same,glycan array binding signal (z-score),[21],-0.063
same,glycan array binding signal (z-score),[22],-0.5
same,glycan array binding signal (z-score),[23],0.812
same,glycan array binding signal (z-score),GlcNAc(b1-6)GalNAc,0.917
same,glycan array binding signal (z-score),[24],0.219
same,glycan array binding signal (z-score),Kdn(a2-3)Gal(b1-3)GalNAc,0.749
same,glycan array binding signal (z-score),Kdn(a2-3)Gal(b1-3)GlcNAc,-0.543
same,glycan array binding signal (z-score),Kdn(a2-3)Gal(b1-4)Glc,0.642
same,glycan array binding signal (z-score),Kdn(a2-3)Gal(b1-4)GlcNAc,-0.2
same,glycan array binding signal (z-score),[25],0.401
same,glycan array binding signal (z-score),Kdn(a2-6)Gal(b1-4)GlcNAc,0.363
same,glycan array binding signal (z-score),[26],-0.568
same,glycan array binding signal (z-score),[27],0.54
same,glycan array binding signal (z-score),Man(a1-2)Man(a1-3)Man,-0.436
same,glycan array binding signal (z-score),[28],-0.666
